We go through 167 variants from the RNAGym collection of RNA variant scans (doi:10.1093/nar/gkz1192).

The labels stand for the following.
B1: CPEB3 Ribozyme (parent)
chain: UAACAGGGGGCCACAGCAGAAGCGUUCACGUCGCAGCCCCUGUCAGAUUCUGGUGAAUCUGCGAAUUCUGCUGUAUAUCUC

The source gives no read counts; variants with many changes may rest on few reads.

Variants of B1 are the subject of this data set. The data set is described as follows: self-cleavage, relative activity (ratio to wild type); higher = more cleavage; in vitro, sequencing. In short, it runs like this: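 For each CPEB3 ribozyme variant, relative activity is its cleaved/total read fraction divided by the unmutated ribozyme's. Barcoded error-prone PCR libraries were transcribed by T7 RNA polymerase (5 hours, 37°C) and held in DNase I for 15 min before an EDTA stop, with cleavage occurring throughout. Template-switching reverse transcription and Illumina sequencing were used to read the RNAs. A 5-read minimum applied, and results are the mean of three batches.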
Turning to U31A U54A U67C U80C, the self-cleavage was found to be 0.2.
Regarding U31A U48C U51C, the self-cleavage came to 0.28.
On to U31A U48C A65U U69A, for which the self-cleavage was determined as 0.12.
As to C29U U41A U54G U58A U67A A77G, the self-cleavage turned out to be 0.06.
Regarding G30U U41C U43C U66C U69C, the self-cleavage turned out to be 0.06.
For G30A U41C U49C U72C, the self-cleavage was 0.09.
The value for U31A U41A U43A U51A was 0.34.
Take U31A U54C U58A U72C U74A: the self-cleavage was 0.14.
For G30U A35C U41G U72C, the self-cleavage worked out at 0.18.
As to U31A U54A U78A, the self-cleavage was 0.38.
Take U31A A56G U67C: the self-cleavage was found to be 0.1.
For U31A A35U U41A G63A C71G the value was 0.06.
On to U31A A35U U69A, for which the self-cleavage stood at 0.19.
In the case of G30C A47G A56G G70A, the self-cleavage stood at 0.15.
With U31A A47C U69C, the self-cleavage was determined as 0.06.
For the variant U31A A45G U49A U66C A77G, the self-cleavage is 0.18.
Consider G30C A65G G73A, for which the self-cleavage came out at 0.09.
Consider G30A U43C A65G U76C U78A, for which the self-cleavage was determined as 0.12.
Consider C29U U48C U78C, for which the self-cleavage worked out at 0.36.
The value for U31A G33A U58C A64G U69C was 0.09; that for G30U A35G A56G A65G U80C was 0.13; that for G30A U54C U67A was 0.22.
For C29U U43C C62A U69A U74G U78C, the self-cleavage was found to be 0.07.
For G30C A56U U58A U69C the value was 0.13.
As for G30A G42A U67C U76C, the self-cleavage was 0.09.
U31A A35G U66A U69C: the self-cleavage is 0.32.
On to U31A A47G U54C, for which the self-cleavage came out at 0.34.
For G30A U31C U41C U54C, the self-cleavage turned out to be 0.19.
Take G30C U66C U67C: the self-cleavage was 0.43.
For the variant G30A G33C U60G A77G, the self-cleavage is 0.12.
For G30A U41C U60A U72C A75G, the self-cleavage was 0.11.
With G30U A45C A47U, the self-cleavage stood at 0.33.
Regarding U31A A45U C81G, the self-cleavage stood at 0.25.
U31A C37U U41A G52U U58C U69G: the self-cleavage is 0.08.
For the variant U31A U51G G53C A64G, the self-cleavage is 0.44.
Consider G30A U54A A56G, for which the self-cleavage is 0.11.
Take G30A C40U U80C: the self-cleavage amounted to 0.24.
With C29U U51C U60C U72C, the self-cleavage turned out to be 0.09.
As to G30U U41C A45U, the self-cleavage was 0.14.
Regarding U31A U43G U48C U67A, the self-cleavage stood at 0.15.
As to G30U U31C U58C, the self-cleavage came out at 0.35.
On to G30U A47G U69A G70A U76A U80C, for which the self-cleavage was found to be 0.14.
Regarding G30U A35G U54A G55C, the self-cleavage came to 0.19.
With G30U G33U A35U U43A U49C U60A, the self-cleavage was found to be 0.1.
Turning to U31A A35U U41A A45G, the self-cleavage came out at 0.31.
Turning to G30A U69A U78C, the self-cleavage was 0.21.
In the case of C29U U43C A45G U58C U69G, the self-cleavage came to 0.08.
Regarding U31A U51G A65G G73A U78C, the self-cleavage is 0.34.
C29U U67A G73U: the self-cleavage is 0.47.
As for U31A U41C A65G, the self-cleavage was found to be 0.34.
On to U31A C40U U67C, for which the self-cleavage came out at 0.13.
Regarding U31A U41C U43A U60C A75G, the self-cleavage was found to be 0.09.
Take G30C G36C A45G: the self-cleavage was 0.06.
The value for U31A U48C A56U U72C was 0.16.
In the case of U31A A35G U54C, the self-cleavage was 1.23.
Take U31A U51A A56G: the self-cleavage was 0.24.
U31A C34U U54C: the self-cleavage worked out at 0.35.
As to G30A G55U A65G, the self-cleavage worked out at 0.07.
As to C29U U51A A56G, the self-cleavage is 0.18.
In the case of U31A U43A U54C U67C A75G, the self-cleavage was 0.19.
Consider U31A U51C U54C U69C, for which the self-cleavage came out at 0.18.
The value for U31A A35U U58C U69G was 0.12; that for C29U U48C U51A U67C was 0.34; that for G30A U41C U51C U72A U80C was 0.09.
For C29U U43C U51A U54A A65U U66C A75U the value was 0.18.
With U31A U41A U51A, the self-cleavage stood at 0.19.
For the variant U31A A47G A64G A75G, the self-cleavage worked out at 0.22.
G30A C40U A65G C79U: the self-cleavage is 0.14.
As for U31A A45G U78C C81U, the self-cleavage was 0.14.
For U31A U43C U51A U72A A77U the value was 0.11.
Consider U31A C32U A45G U51C, for which the self-cleavage was 0.06.
The value for G30A A35G A45C U54A C68G was 0.17; that for U31A G61A A65G was 0.22.
On to G30A U41A U49C U72A, for which the self-cleavage stood at 0.1.
For U31A A56G A64G the value was 0.33; for U31A C71A U72C U78C, 0.13.
Turning to U31A G42A A45G A47G, the self-cleavage was found to be 0.21.
For U31A U41C U60C U66C, the self-cleavage was 0.17.
Regarding U31A U49C U66C, the self-cleavage turned out to be 0.12.
For C29U U51A A57U U69A U80C C81A the value was 0.11.
As for C29U U43A A64U, the self-cleavage is 0.52.
For the variant G30C C40U U48C U54C U69A, the self-cleavage was determined as 0.14.
Consider U31A A35G U60G, for which the self-cleavage was determined as 0.36.
The value for C29U U41C A77G was 0.47; that for G30C U43A U48A U80A was 0.18.
On to U31A A47G U48C C59U U72C, for which the self-cleavage is 0.08.
Regarding U31A A45G U51C, the self-cleavage was found to be 0.15.
For the variant U31A C39A U74C, the self-cleavage was 0.32.
Take C29U U51C A56G: the self-cleavage is 0.31.
Take G30A U31A C34U A56G: the self-cleavage is 0.08.
U31A U41A U54C A77G: the self-cleavage is 0.43.
As to U31A C32A U60A A77U, the self-cleavage was 0.09.
In the case of U31A A57G C71U, the self-cleavage was determined as 0.35.
For G30U C34U U41A A77G the value was 0.08; for U31A U51C U60C, 0.21; for G30U U41A C44A U60A U66C, 0.14.
Consider G30U U43C A45G U54C U58C U69C, for which the self-cleavage is 0.04.
For the variant U31A A45U U54C, the self-cleavage was found to be 0.17.
Regarding G30A U51C A77U, the self-cleavage was 0.09.
For C29U U49A U51C U72G the value was 0.42; for G30U G53A U60C U66C A75U, 0.08; for U31A U69A U76C U80C, 0.34.
Turning to G30C U58C A64G, the self-cleavage was determined as 0.21.
Regarding U31A A45U U66C, the self-cleavage worked out at 0.09.
The value for U31A U48C A56G was 0.19; that for C29U U49C U69C U80C was 0.13; that for U31A C38U U60A U66A was 0.17.
On to G30A U41C A45G, for which the self-cleavage worked out at 0.53.
For U31A G33U U48C U69C the value was 0.08; for C29U U43G U69A U72G, 0.17.
Regarding U31A A56G U72A, the self-cleavage amounted to 0.51.
For U31A G36A U43C U72C the value was 0.13; for U31A A35U U58G, 0.13; for G30A U66C U67C, 0.16.
For U31A A35U U43C the value was 0.27; for U31A U49C A64G U66A, 0.21; for G30C A45U U72C, 0.19.
Consider G30U U41C A77C, for which the self-cleavage amounted to 0.14.
The value for U31A A45U U58A was 0.2; that for U31A U48C U58C was 0.4; that for U31A U54A A56G U72G was 0.56.
In the case of U31A U43C A56U, the self-cleavage came to 0.09.
With U31A A45G U60A, the self-cleavage came to 0.26.
In the case of G30U U41C U43A U49A U58A U67C U80C, the self-cleavage was 0.07.
As for G30A G52A A57G A64G, the self-cleavage was 0.19.
In the case of G30U U51A C59A, the self-cleavage turned out to be 0.17.
U31A A45G U54A U67C U69A U72C: the self-cleavage came out at 0.22.
For U31A A45G A75G U76A, the self-cleavage came to 0.31.
In the case of U31A U43C A56U U74C, the self-cleavage was 0.13.
As to G30U U41C U54G A64U G70U, the self-cleavage was 0.11.
For the variant G30A U41G A57G A77G, the self-cleavage was 0.31.
Turning to G30A U49A G55C U76C, the self-cleavage was determined as 0.14.
In the case of G30A U41C A56G, the self-cleavage was determined as 0.39.
The value for G30A A35G U78C was 0.13; that for G30A U31C U48C U54C was 0.17; that for U31A A45C U54G U80C was 0.11.
With U31A U54C U66C, the self-cleavage worked out at 0.29.
On to C29U U43C A47G, for which the self-cleavage stood at 0.29.
Consider G30A G42A U48C A77C, for which the self-cleavage was determined as 0.05.
For U31A C34U A56U, the self-cleavage came out at 0.2.
As to U31A C34U A56G, the self-cleavage came out at 0.1.
For C29U U41C U74C U78C, the self-cleavage came to 0.77.
Turning to G30U U54C A57G U66C, the self-cleavage worked out at 0.13.
As for U31A U41C U78C, the self-cleavage came to 0.35.
For G30U U41C U60A U72C, the self-cleavage worked out at 0.13.
The value for U31A A35U A75C was 0.2; that for G30A U49C U54C U60C U66C U78C was 0.06; that for G30A C40A U51C U69C was 0.14.
For U31A A57U U69C the value was 0.09; for U31A U51A U54C U69A, 0.29.
With U31A A56U U60C, the self-cleavage was 0.13.
For the variant U31A A35G U72C, the self-cleavage came to 1.24.
Regarding U31A U43G U54C G61A, the self-cleavage is 0.12.
In the case of G30A A45C U78C, the self-cleavage worked out at 0.06.
Turning to U31A A35U U49C U51A A65G, the self-cleavage turned out to be 0.01.
As for U31A C44G U67C, the self-cleavage came out at 0.05.
In the case of U31A A35U C68U U69C U72C U74C, the self-cleavage came to 0.12.
On to C29U U48C U66C, for which the self-cleavage is 0.07.
Regarding G30A U41A U67C U69C, the self-cleavage stood at 0.07.
For U31A G33A A65G U72A U78C, the self-cleavage was 0.05.
Turning to G30A A35G U49C U69C A75G U78C, the self-cleavage is 0.1.
On to U31A C44A U51A, for which the self-cleavage turned out to be 0.13.
For U31A U67A U80C the value was 0.55; for U31A A45G U76A, 0.32; for G30A U41C A56G U80C, 0.12.
As for U31A A56G U58A, the self-cleavage came to 0.1.
U31A A45G U48C U60C U69A: the self-cleavage worked out at 0.2.
